According to the supplement of paper PMC3334620:
In all, about 33,000 sequences were measured (“E-score (-0.5 to 0.5)”: median about -0.032, highest 2% from about 0.36 on). The list shows a part of the results.

These sequences were tested against T1, Sko1 (UniProt Q02100) (assay: PBM E-score (8-mer binding enrichment) (E-score (-0.5 to 0.5)); higher = stronger / more preferred TF binding; most listed sequences are background and not binding sites). Details: protein concentration: 200 nM; construct: GST-full length.
T1 sequence: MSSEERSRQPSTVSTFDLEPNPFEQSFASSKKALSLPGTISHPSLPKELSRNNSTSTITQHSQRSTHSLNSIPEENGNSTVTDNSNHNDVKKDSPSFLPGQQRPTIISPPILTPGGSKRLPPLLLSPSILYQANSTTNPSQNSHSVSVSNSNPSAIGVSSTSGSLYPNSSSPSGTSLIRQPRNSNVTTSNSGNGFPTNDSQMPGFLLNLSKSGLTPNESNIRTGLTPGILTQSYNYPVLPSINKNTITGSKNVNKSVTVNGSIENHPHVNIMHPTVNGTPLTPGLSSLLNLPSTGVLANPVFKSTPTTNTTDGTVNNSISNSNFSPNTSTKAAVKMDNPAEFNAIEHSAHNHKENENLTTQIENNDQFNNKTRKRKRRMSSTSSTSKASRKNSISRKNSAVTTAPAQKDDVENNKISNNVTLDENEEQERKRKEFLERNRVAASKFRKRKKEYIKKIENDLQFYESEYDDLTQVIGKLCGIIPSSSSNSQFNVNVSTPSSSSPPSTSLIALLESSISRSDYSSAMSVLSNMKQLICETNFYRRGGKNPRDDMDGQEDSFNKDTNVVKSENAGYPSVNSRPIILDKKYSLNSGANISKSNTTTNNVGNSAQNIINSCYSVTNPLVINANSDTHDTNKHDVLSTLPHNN
In short: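 Full-length yeast transcription factors or their DNA-binding domains, GST-tagged and expressed with PURExpress, were applied at about 100-200 nM to universal all-10-mer Agilent arrays. These arrays had been made double-stranded by primer extension on fresh or once-stripped slides. Detection used fluorescent anti-GST, normalisation used masliner, and E-scores for ungapped eight-base words pooled with reverse complements came from the Universal PBM Analysis Suite.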

Sequence	PBM E-score
AGGTCTCC	-0.27
CAATAGAA	-0.1
ACTACGGG	-0.221
ACGTGCAC	0.355
GCCTGAGC	-0.162
ATGGGGGG	-0.236
GTGGCAAA	-0.00522
GAGCATTA	0.0416
AGGAACGC	-0.0849
CTTTCGGA	-0.16
AACTTTAG	0.247
AGGCGGAC	-0.208
AGTTACGA	0.293
CGACATGC	0.131
AATACACG	0.307
AGCCCTCC	-0.412
CGAGGCGA	-0.222
GCTGAAGC	-0.119
AAGCTCAA	-0.0304
CTCTCTTC	-0.107
GATCTTAC	-0.00807
GATATTAA	0.0842
AGCGAGCG	0.0279
CTTCAAGA	0.0181
GACACGTC	0.382

Sequence	PBM E-score
AGGCTTCG	-0.242
GATCTTAA	0.0822
ACGCTCCG	-0.152
ACGAGATC	0.0765
GCACGCGC	0.164
AGTAATTG	0.173
GTTAAGGA	0.0042
ACTGGGCT	-0.359
CTTGCCTA	0.0453
AGACTGAC	0.0795
ATGTATAG	0.164
ATTGCCTA	-0.0814
CGCGTCCC	-0.274
CACCGGCA	-0.161
CTGCGTCA	0.435
AGTTCGTC	0.202
CTTTGTGA	-0.079
CCTTCTCA	-0.0853
ACCCGGCC	-0.333
AAAGAGTA	-0.00658
AGCTTTGA	0.0244
CGGAAGTC	-0.152
CCTGAAAG	-0.0268
GATTGGTA	-0.054
AGGCAACG	-0.0814

Sequence	PBM E-score
GACCCCTC	-0.32
GACCACAC	-0.108
GCGCGCGC	0.244
GGCCCTAC	-0.337
CAGGGTAC	-0.117
CAGCCGGC	-0.207
AACCCGAT	0.0916
GGGAGTGA	-0.177
AGAAGGCT	-0.221
CTAACCAA	-0.0277
CCTGACCC	-0.214
CAGCGCTA	-0.00166
TACGGTAA	0.33
CCTCGAAG	-0.0384
AGGTTATA	-0.0325
ATAAAGTC	0.0596
CCGTAGTA	-0.0427
GGCTTCAA	-0.153
GCTGAACA	-0.148
ATACTGAT	0.141
ACAAAATA	0.188
CCGAACAG	0.0297
CGTGTAGC	0.103
GATGAATC	-0.0135
ACTCTAAC	-0.00576

Sequence	PBM E-score
CTATACTC	-0.102
AGCCGCCC	-0.234
CTCGCGGC	-0.182
AGTCGCAC	-0.105
AATTCTTG	0.122
CGATTCCC	-0.124
AGTGAGTG	-0.116
ATCCCTTC	-0.121
ACTCTCCA	-0.104
AACGACGC	0.0851
CAACCCGC	-0.124
CGCCCAAA	-0.0448
CGCTGAAC	-0.0109
GCCAGTGA	-0.0654
ACATCACC	0.277
ACAATATG	0.0615
CCATAAAA	0.0122
CACTTACG	0.382
AACGCCTG	-0.014
CTTGAACC	0.0388
AATATATT	0.328
GACAGCCA	-0.131
TCACAGAA	-0.0132
GCGGGCTA	-0.267
AAACCCCG	-0.127

Sequence	PBM E-score
GATTACTA	0.204
CCGTACTA	0.00949
ACGAGCAT	0.0646
CCAGGGTA	-0.159
CACTAGCG	-0.124
CAAGCCTA	-0.0377
CTTTGGAC	0.0446
ATTCTCGG	-0.0783
GTCACCAC	0.128
ACCAACGA	-0.0617
AGCTTTCG	-0.129
CAAGGTCC	-0.243
TCCCGAGA	-0.195
GCACAAGA	0.0649
TATCCCAA	0.0039
ACGTTACG	0.428
ACGACACG	0.209
GTAACCCA	0.0995
AGACTTAG	-0.228
AGGAACAA	-0.177
ACTAAGAA	0.0524
TATGAGGA	0.0996
AGTTCGGC	-0.0923
TACATTGA	0.0774
CATCGTAG	0.13

Sequence	PBM E-score
CCTAGTTA	0.0394
CCCACTCA	-0.115
ACGAGTCC	-0.0325
GGCCATAC	-0.121
GGACCAAA	0.0897
ACGCTTAC	0.123
CATATCAC	0.169
ATTGTAGC	-0.0529
ATCTATCC	-0.0133
AGGTATCA	-0.198
CCGAACAC	-0.0487
GTGTAACA	-0.0212
TCGTAAGA	0.199
ATTGCTAC	0.0814
AAGAGAAT	0.0569
GTAGTCAA	0.231
AAGTATGA	0.178
AAGTGTTC	0.0966
CGGGAACC	-0.28
GGATAGCC	-0.193
AGTTAAAA	0.153
GCCCCTAC	-0.00604
ACAAGGTA	0.0787
AATAGCGC	0.062
GGTCCACA	-0.321

Sequence	PBM E-score
AACACTCG	0.0948
CTACTGGC	-0.247
CTGGCCCC	-0.315
CTCTGAGC	-0.139
AAAGGACC	-0.229
CTCCAGCA	-0.209
ATGACCAA	0.184
AAGATCGA	-0.0785
CTCGTCCA	0.221
AATGTGAT	0.263
GTCATGAA	0.221
AGGCTACT	-0.141
AGCGCACC	-0.234
GTCGACCA	-0.0244
GATTCACC	-0.101
ACGGTCGC	-0.108
AGGGTGTA	-0.0881
AAATGAGG	-0.0231
ATGTCGAC	0.202
GCCTCGCC	-0.431
AAACTCCG	-0.18
GTATATAC	0.218
ACCTTTAA	0.00575
TCGACGCA	0.0313
CTGTCATC	0.0473

Sequence	PBM E-score
CATTAAGC	-0.0788
TGCGGAAA	-0.155
CACTAGAG	-0.0779
AGTCGCGG	-0.312
ACGTTACA	0.359
TCTCGAAA	0.156
GGTGGAAC	-0.174
CGGGCTAG	-0.231
AACAGCGG	-0.0117
AGCTTTGC	-0.179
AAATTGTC	0.0973
AAGTCCCG	-0.293
ACGAGAAA	0.119
AAGTTAAT	0.191
ACATATCC	0.0118
ACTGTTCC	-0.0754
GAGCCTCC	-0.273
TAGATGCA	-0.11
CCCTTCCA	-0.191
GATTGAAC	0.0633
ACGATATC	0.196
ACCCAACT	0.016
AATTGTTA	0.129
CAATAAAC	0.112
AACCCCGC	-0.157

Sequence	PBM E-score
AATGCTCG	0.164
CAAAAACA	0.021
CCGTGTTC	-0.0799
TACTCAAA	0.196
CCAGCCTA	-0.364
ACCGATCA	-0.0191
ACTTTGCA	-0.0269
ATTGGTAC	-0.0769
TACATGCA	0.0816
AACGAATC	0.182
AGTCCCAT	-0.166
TCTGTCCA	-0.0197
CAGGAGTA	-0.0469
GAACCCTA	-0.137
AGAGTTTC	-0.144
CGGATTTC	-0.233
AAATCTCG	0.014
TCAGGGGA	-0.189
CCCCGCAA	-0.0199
CCACCTTC	-0.295
CAGTGAGG	-0.193
GGTTCGAA	0.043
CCTCTCAA	-0.0829
ACAAGCAG	-0.165
CACTTGCG	0.0319

Sequence	PBM E-score
ATGTGCGC	0.0502
AGGCGTAG	-0.177
CGCTCGGC	-0.187
CCCGACCA	-0.179
CAGTGGAG	-0.149
CGGCTTCA	-0.107
GTCCGCAC	-0.00114
CAATTGCA	-0.0524
GATGAGCA	0.127
ACGGACGT	0.192
AATAGAAA	0.0829
CACAAAGC	-0.122
GTTGATTA	0.196
CAGCACAA	0.153
ACGGGGCT	-0.227
CTAATCAG	-0.0472
TATCTACA	0.0403
CCGCCATC	-0.29
GAGGTAAC	0.0793
ACAAGAAC	0.26
CGCGGCCA	-0.143
AGAACTTG	0.0393
AATGGCTG	-0.0573
GTAGCTTA	0.23
CATCCTCC	-0.03

Sequence	PBM E-score
ATTACTCG	0.204
ATACTGTG	-0.0411
ATCATTAC	0.341
CAACCCTA	-0.0806
ATAGTCGC	-0.0441
ATGTGAGA	-0.0663
CGTGGCTC	-0.0473
CCGCATTC	-0.0977
ACCACTCA	0.00664
CCTCGCCC	-0.0714
AAGCCAGC	-0.0946
CCGGCCTA	-0.118
CTTCTATC	-0.208
GCACATGC	-0.122
GATTAGAC	-0.0201
CCGGATTA	-0.121
AGCGGACC	-0.244
GGTGCTAC	-0.189
ATACTCAC	0.0311
ATGAGGGG	-0.289
CGTACATC	0.244
GAGTAAGC	-0.211
CATAAACG	0.25
ACACATCG	0.0864
CTGTCGCA	-0.19

Sequence	PBM E-score
ATAACGGC	0.0392
ACCAGAAT	-0.0268
ATTGCTTA	0.034
CAGCTTAG	-0.168
ATTTGCAC	0.199
ATTTTGTG	0.173
ACCCGCAT	-0.134
GGCGTCAA	0.235
CCACAGCG	-0.138
GCCCGCCA	-0.175
CCTTGATC	-0.155
CGCCCCAG	-0.141
ACATGAAG	-0.0534
CACAATGG	0.094
CATCATTA	0.359
GAGCATGC	-0.262
AGCGGCGG	-0.267
AGCATATA	0.0246
TTATATAA	0.298
GGGTCAGA	-0.219
CTCTACAA	-0.111
AGATACAA	0.254
CACCGAGA	-0.266
CCAACTGC	-0.196
ACAGCGGA	-0.0805

Sequence	PBM E-score
AAGCGGGA	-0.108
AACCGCAC	0.0215
AGGGAATA	0.0115
TATATATA	0.204
ATGCATGG	0.0564
AGACCTCC	-0.313
ATCTGGTA	-0.0293
GTAAGTTA	0.219
CAAGCATC	-0.0904
ACGTACGC	0.453
CGTTATTA	0.303
ACAAGGAC	-0.133
CTCGTCTC	-0.19
CTCTTCAG	-0.151
GAAGTGGC	-0.0533
CCTACGGA	-0.182
GCCGTTTA	-0.0691
CGTTTGTA	0.162
AGGCGCTG	-0.187
ATGTTCAC	0.0503
CCGACATC	-0.0792
GAGAATCA	-0.096
TATCCGCA	0.124
GATGTCAA	0.123
ATTCCAGA	0.107

Sequence	PBM E-score
CATGGGGA	-0.068
CATGCTCC	-0.152
AGTGCGGG	-0.0259
CGACCAAG	-0.00522
TGGAAAAA	-0.0546
AGTACTAG	0.00268
CTTTTGAC	0.074
AGAACAGA	-0.0893
CGATAAAA	0.148
ACCCTTAC	0.0887
CCTCAGGC	-0.163
CTTTCAAC	0.044
AACCTTGC	-0.168
AGGGTTAG	-0.0357
CGGACTCC	-0.273
GTCGTCCA	-0.127
ACATATGA	0.273
AAGACCGG	-0.284
CGGTGAAC	-0.0247
